Hit rate of the full screen: of about 310,000 compounds, about 14,000 (4.5%) showed an effect of 50% or more. Effects have a minus sign here. This is one part of the list.
What follows are compounds tested against human ether-à-go-go-related gene (hERG) potassium channel (human, UniProt Q12809) (assay: primary screen, population patch clamp on CHO cells stably expressing hERG).
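Note: peak tail current of the secondary pulse compared with the same well before compound.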

Sequence of human ether-à-go-go-related gene (hERG) potassium channel (Q12809 whole entry, looked up): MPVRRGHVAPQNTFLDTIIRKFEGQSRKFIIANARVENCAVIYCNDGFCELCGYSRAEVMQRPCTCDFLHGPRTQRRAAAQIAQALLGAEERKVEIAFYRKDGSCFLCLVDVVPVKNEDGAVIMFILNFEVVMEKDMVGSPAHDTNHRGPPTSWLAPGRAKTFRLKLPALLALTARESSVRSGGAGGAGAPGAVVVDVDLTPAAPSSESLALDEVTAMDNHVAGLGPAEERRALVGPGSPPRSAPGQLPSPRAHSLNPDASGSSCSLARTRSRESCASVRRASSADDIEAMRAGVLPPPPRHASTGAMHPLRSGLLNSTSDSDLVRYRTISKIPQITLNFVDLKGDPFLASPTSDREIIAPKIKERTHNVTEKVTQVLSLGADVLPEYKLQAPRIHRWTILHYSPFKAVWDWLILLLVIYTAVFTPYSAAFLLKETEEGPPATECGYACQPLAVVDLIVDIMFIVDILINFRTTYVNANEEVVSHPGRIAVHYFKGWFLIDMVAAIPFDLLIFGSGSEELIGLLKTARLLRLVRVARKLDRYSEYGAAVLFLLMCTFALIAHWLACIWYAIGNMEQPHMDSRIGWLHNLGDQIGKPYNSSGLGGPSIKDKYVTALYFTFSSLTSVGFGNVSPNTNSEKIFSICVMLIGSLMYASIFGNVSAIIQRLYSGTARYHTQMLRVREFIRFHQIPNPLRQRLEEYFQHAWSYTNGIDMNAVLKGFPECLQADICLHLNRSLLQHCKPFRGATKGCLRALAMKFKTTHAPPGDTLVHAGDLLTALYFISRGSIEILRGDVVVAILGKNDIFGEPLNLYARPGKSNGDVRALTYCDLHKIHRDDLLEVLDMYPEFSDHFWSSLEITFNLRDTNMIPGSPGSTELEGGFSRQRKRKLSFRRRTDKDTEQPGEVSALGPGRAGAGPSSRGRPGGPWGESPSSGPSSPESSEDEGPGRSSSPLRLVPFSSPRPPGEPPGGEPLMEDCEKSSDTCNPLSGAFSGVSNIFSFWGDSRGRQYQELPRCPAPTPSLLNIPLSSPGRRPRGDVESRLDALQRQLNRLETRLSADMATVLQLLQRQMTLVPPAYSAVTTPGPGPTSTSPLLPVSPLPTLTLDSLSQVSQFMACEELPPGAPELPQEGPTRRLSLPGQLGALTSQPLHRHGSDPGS

First: C=CCNC(=O)NC(=O)COC(=O)c1nc2nccc(C)n2n1
Second: CCOC(=O)C1=C(C)NC(=O)NC1c1ccc(OC(=O)c2ccco2)cc1 (stereo not shown)
The “hERG current change (%, negative = inhibition) at 10uM” value of the first is higher: 17.8% for the first, -2.08% for the second.

Compared with Cc1cccc(N2CCN(C(c3ccc(N(C)C)cc3)c3nnnn3C(C)(C)C)CC2)c1C (stereo not shown), Cc1ccc(-c2nn3c(C)nnc3c3ccccc23)cc1S(=O)(=O)NC(C)c1ccccc1 (stereo not shown) is lower in “hERG current change (%, negative = inhibition) at 10uM” value: -10.8% for the first, -50.8% for the second.

First: Cc1ccc(NC(=O)CSc2nnc(NC(=O)c3ccc(S(=O)(=O)N4CCOCC4)cc3)s2)cc1
Second: O=C(COc1cccnc1[N+](=O)[O-])Nc1ccc(S(=O)(=O)N2CCOCC2)cc1
The “hERG current change (%, negative = inhibition) at 10uM” value of the first is lower: 13% for the first, 16.2% for the second.

First: CCOc1ccccc1NC(=S)N1CCN(c2nc(-c3cccc(OC)c3)cs2)CC1
Second: Oc1c(CN2CCN(c3ccccc3)CC2)cc(Br)c2cccnc12
The “hERG current change (%, negative = inhibition) at 10uM” value of the first is higher: 32% for the first, 7.1% for the second.

Going from O=C(C1CCN(c2ncnc3c2nc2n3CCCCC2)CC1)N1CCN(c2cccc(Cl)c2)CC1 to COc1cccc2[nH]c3c(N4CCCCC4)ncnc3c12, the “hERG current change (%, negative = inhibition) at 10uM” value rises from -36.7% to -14.3%.

Compared with Cn1cc(/C(Cc2ccccc2)=N\O)c2ccccc21, C(=N\Nc1nncc2ccccc12)/c1ccccc1 is lower in “hERG current change (%, negative = inhibition) at 10uM” value: 4.78% for the first, 1.52% for the second.

Going from COc1ccc2c(CC(=O)Nc3cccc(S(=O)(=O)N4CCOCC4)c3)coc2c1 to COc1ccccc1-n1cnnc1SCC(=O)Nc1cccc(S(N)(=O)=O)c1, the “hERG current change (%, negative = inhibition) at 10uM” value rises from -32.4% to 15.9%.

First: Cc1nc(C(=O)NNC(=O)c2ccccc2)c(C(F)(F)F)o1
Second: O=C(O)CCC(=O)Nc1sc2c(c1C(=O)NCc1ccccc1)CCCC2
The “hERG current change (%, negative = inhibition) at 10uM” value of the first is higher: 8.9% for the first, 2.8% for the second.

First: COc1ccc(C(CNC(=O)C(=O)NC2CCCC2)N2CCN(C)CC2)cc1 (stereo not shown)
Second: COc1ccc(Cl)cc1NS(=O)(=O)c1cccc(C(=O)NCC(c2ccco2)N2CCCC2)c1 (stereo not shown)
The “hERG current change (%, negative = inhibition) at 10uM” value of the first is lower: -45.9% for the first, -34% for the second.

First: COc1ccc(-c2c(C)c3cc(O)ccc3oc2=O)cc1
Second: COc1ccnc(Oc2ccccc2)c1C(N)=O
The “hERG current change (%, negative = inhibition) at 10uM” value of the first is lower: 6.67% for the first, 20.2% for the second.

Going from Cc1ccc2c(Cl)cc(Cl)c(OCC(=O)Nc3cccc(S(=O)(=O)N(C)C)c3)c2n1 to O=C(Nc1ccccc1O)c1cccc(S(=O)(=O)Nc2ccccc2O)c1, the “hERG current change (%, negative = inhibition) at 10uM” value rises from -0.285% to 8.81%.

Compared with CC(C)(C)c1ccc(C(=O)C2CCCN(C(=O)CCn3cncn3)C2)cc1 (stereo not shown), COc1ccccc1C(=O)C1CCCN(C(=O)CSc2ccccn2)C1 (stereo not shown) is higher in “hERG current change (%, negative = inhibition) at 10uM” value: -28.6% for the first, -23% for the second.

Compared with COC(=O)c1cc(C(=O)c2ccc(C(C)(C)C)cc2)c[nH]1, CCOC(=O)C1(Cc2cccc(Cl)c2)CCCN(C(=O)c2cc(C)[nH]n2)C1 (stereo not shown) is lower in “hERG current change (%, negative = inhibition) at 10uM” value: 0.533% for the first, -25.2% for the second.

Going from CCN(CC)S(=O)(=O)c1cccc(C(=O)N/N=C2\CCCC(=O)C2)c1 to O=C(NCc1ccc2c(c1)OCO2)c1cccc(N2CCCC2=O)c1, the “hERG current change (%, negative = inhibition) at 10uM” value rises from -1.63% to -0.598%.

First: Cc1cc(C)cc(N2C(=O)NC(=O)/C(=C\c3cc(C)n(C)c3C)C2=O)c1
Second: Cc1cc(C)c(S(=O)(=O)N2CCN(C)CC2)c(C)c1
The “hERG current change (%, negative = inhibition) at 10uM” value of the first is lower: 6.86% for the first, 10.5% for the second.

Compared with COc1ccccc1NC(=O)C(=O)N/N=C(\C)CC(=O)Nc1ccc(OCc2ccccc2)cc1, O=C(Nc1ccccc1)/C(=C/c1ccccc1)NC(=O)c1ccco1 is higher in “hERG current change (%, negative = inhibition) at 10uM” value: 3.64% for the first, 13.4% for the second.

First: CCN(CCNC(=O)Cn1c(=O)sc2ccccc21)c1ccccc1
Second: Cc1n[nH]c(C)c1C(=O)CC1(O)C(=O)N(CCc2ccccc2)c2ccc(Br)cc21 (stereo not shown)
The “hERG current change (%, negative = inhibition) at 10uM” value of the first is lower: -15.5% for the first, 12.8% for the second.

Going from Cc1nn(Cc2c(F)c(F)c(F)c(F)c2F)c(C)c1NC(=O)c1nn(C)cc1Br to CCOc1ccc(S(=O)(=O)Nc2nc3ccccc3nc2-n2ccc(=NC(=O)c3ccccc3C)cc2)cc1, the “hERG current change (%, negative = inhibition) at 10uM” value falls from 11.1% to 5.75%.

First: O=C(c1cccc(Br)c1)N1CCN(S(=O)(=O)N2CCOCC2)CC1
Second: COc1cccc(C(=O)NC23CC4CC(CC(C4)C2)C3)c1
The “hERG current change (%, negative = inhibition) at 10uM” value of the first is lower: -40.6% for the first, 2.17% for the second.

Going from CC1CCN(CCCOc2ccc(Cl)cc2Br)CC1 to NC(=O)C(=O)NCCCN1CCOCC1, the “hERG current change (%, negative = inhibition) at 10uM” value rises from -76.3% to 29.8%.

Going from CCC(CO)Oc1cc(NCc2ccccc2Cl)c2ncn(C(C)C)c2c1 (stereo not shown) to CCNc1nc(NC(C)C)nc(N(C#N)Cc2ccccc2)n1, the “hERG current change (%, negative = inhibition) at 10uM” value falls from -14.8% to -22.3%.

With CC1(C)CC(=O)CC2(C1)NCC(c1ccccc1Cl)c1c2[nH]c2ccccc12.Cl (stereo not shown) the “hERG current change (%, negative = inhibition) at 10uM” value was -51.4%.

Reference: PMC4336329 (PLoS ONE, 2015)
